In ChEMBL document CHEMBL1201862, “PubChem BioAssay data set” (2004):

These compounds were tested on NCI-H322M (assay: DTP human tumour cell line panel, 48 h).

Row | Compound | GI50
1 | O=C(c1ccccc1)c1nnc(C(=O)c2ccccc2)nn1 | inactive: > 344 µM
2 | Cc1cc(S(=O)(=O)Nc2nc(N)nc(N(C)C)n2)c(S)cc1Cl | inactive: > 10 µM
3 | O=C1c2cc3c(cc2NC(c2ccccc2F)C1O)OCO3 (centres undefined) | inactive: 13.8 µM
4 | CCOC(=O)c1c(-c2ccccc2)[nH]c2ccc(Cl)cc2c1=O | inactive: 43.2 µM
5 | Fc1cc(C2=Nn3c(COc4ccccc4Cl)nnc3S/C2=C\c2ccc(Cl)cc2)c(Cl)cc1Cl | inactive: 3.42 µM
6 | COc1cccc(/C=C2\S/C(=N/Nc3nc(-c4ccc([N+](=O)[O-])cc4)cs3)NC2=O)c1O | inactive: 20.3 µM
7 | Cc1ccc(S(=O)(=O)C(C#N)c2nc3ccccc3nc2N2CCOCC2)cc1 (centres undefined) | inactive: 20.6 µM
8 | COC(C/C(=C/CO[Si](C(C)C)(C(C)C)C(C)C)C(=O)N(C(=O)OC(C)(C)C)c1ccccc1I)OC | inactive: > 100 µM
9 | O=[N+]([O-])C(=C(N1CCCCC1)N1CCCCC1)/C(Cl)=C(\Cl)[N+](=O)[O-] | inactive: 19.4 µM
10 | COc1cccc2c1C(=O)c1c(O)c3c(c(O)c1C2=O)CC(O)(C(O)CO)CC3OC1CC(N2CCOCC2)C(O)C(C)O1 (centres undefined) | active: 0.00269 µM
11 | CCOc1cc(NC(C)=O)ccc1C(=O)NN1C(=O)/C(=C/c2ccc(Cl)cc2)N=C1c1ccccc1 | inactive: > 100 µM
12 | C[N+](C)(C)CC1CCCC(C[N+](C)(C)C)C1=NO (centres undefined) | inactive: > 100 µM
13 | CN(C)/C=N/S(=O)(=O)c1nn2c(C=O)c(-c3ccc(-c4ccccc4)cc3)nc2s1 | inactive: 9.89 µM
14 | O=C(c1ccccc1)C1(Br)S(=O)(=O)OCCOS1(=O)=O | inactive: > 100 µM
15 | CCOC(=O)c1csc(NC(=O)CN(C)C)n1 | inactive: > 100 µM
16 | Cc1ccc(I)cc1N=C=S | inactive: 23.9 µM
17 | O=C(Nc1nc2c(=O)[nH]cnc2s1)c1ccccc1 | inactive: > 100 µM
18 | CCCCCCCCCCCc1nnc(N)o1 | inactive: > 100 µM
19 | O=[N+]([O-])C[C@@]12O[C@]3(O)C4C5CC(C6C5C3C61)C42 (some centres undefined) | inactive: > 100 µM
20 | COc1nc(N(C)C)nc2c1[n+](C)cn2C [HETEROMINE A] | inactive: > 100 µM
21 | C(#C[C@@]12CCC[C@@H]1N(Cc1ccccc1)CO2)c1ccc2c(c1)OCO2 | inactive: > 100 µM

Row | Compound | GI50
22 | O=C(NN1C(=O)C(Cl)C1c1cccc([N+](=O)[O-])c1)c1ccccc1O (centres undefined) | inactive: > 100 µM
23 | COC(=O)n1c(=O)n(-c2ccccc2)c(=O)n1C(=O)Nc1ccccc1 | inactive: > 100 µM
24 | CCOC(=O)c1c(-c2ccc(OC)cc2)c(C#N)c(=S)n(C2OC(COC(C)=O)C(OC(C)=O)C(OC(C)=O)C2OC(C)=O)c1-c1ccccc1 (centres undefined) | inactive: > 100 µM
25 | NNC(=O)/C(=C/c1cccc([N+](=O)[O-])c1)NC(=O)c1ccccc1 | inactive: > 100 µM
26 | COC12OC3(C4OC41)C(C(=O)O[C@H]3CO[Si](C)(C)C(C)(C)C)C2S(=O)(=O)c1ccccc1 (some centres undefined) | inactive: > 4.65 µM
27 | N/N=C(\C(=O)Nc1ccc(Cl)cc1Cl)C(c1cnc2ccccc2n1)[N+](=O)[O-] (centres undefined) | inactive: > 100 µM
28 | Cc1cc(=O)oc2cc(OS(C)(=O)=O)ccc12 | inactive: > 100 µM
29 | Cc1ccc(S(=O)(=O)N/N=C(\c2nc3ccc([N+](=O)[O-])cc3[nH]c2=O)C(O)c2ccc([N+](=O)[O-])cc2)cc1 (centres undefined) | inactive: > 100 µM
30 | CCOc1ccc(/N=N/C2C(=O)N(C(=O)CC(=O)Nc3ccccc3OC)N=C2C)cc1 (centres undefined) | inactive: > 75.3 µM
31 | CCOC(=O)C(NC(=O)CC)(Nc1ccc(S(=O)(=O)Nc2ncccn2)cc1)C(F)(F)F (centres undefined) | inactive: > 100 µM
32 | O=c1[nH]c(=O)n(C2OC(CO)C(O)C2O)c2c1CCCC2 (centres undefined) | inactive: > 100 µM
33 | CC1=CC[C@H](C)C(C)(C)C1/C=C/C(C)=C/CC[C@@]1(CO)[C@H](CCCO)/C(=C(/C)C=O)CC[C@]1(C)O (some centres undefined) | inactive: 15.1 µM
34 | C/C(=N/NC(=S)NCCc1ccccn1)c1cnccn1 | inactive: 17.6 µM
35 | S=c1nc(N/N=C/c2cccs2)c2cn[nH]c2[nH]1 | active: 0.861 µM
36 | O=c1[nH]nc(Cc2ccccc2)n1/N=C/c1ccc([N+](=O)[O-])cc1 | inactive: > 100 µM
37 | N#CC1=C(N)Oc2c(ccc3cccnc23)C1c1ccccc1 (centres undefined) | inactive: 4.43 µM
38 | O=C(Cc1ccccc1)NCCCN(CCCCN(CCCNC(=O)Cc1ccccc1)C(=O)OCc1ccccc1)C(=O)OCc1ccccc1 | inactive: > 100 µM
39 | CC(C)(C)c1cc(C(=O)O)c2c(c1)C(=O)OC2(c1ccccc1)c1ccccc1C(=O)O (centres undefined) | inactive: > 100 µM
40 | O=C(Cc1nc2c3c(ccc2nc1O)C(=O)c1ccccc1C3=O)C(=O)Nc1ccccc1[N+](=O)[O-] | inactive: 90.4 µM
41 | Cc1cc(C)nc(NS(=O)(=O)c2ccc(NC(=O)c3cccc4cc5ccccc5nc34)cc2)n1 | inactive: 86.3 µM
42 | O=C1CC(Br)c2c(Br)sc(Br)c21 (centres undefined) | inactive: > 100 µM

Row | Compound | GI50
43 | CC(C)(C)[Si](C)(C)O[C@@H](C(=O)OC1C=CCCC1)[C@@H](NC(=O)c1ccccc1)c1ccccc1 (some centres undefined) | inactive: 37.3 µM
44 | O=C1C[C@H](c2ccccc2)C2(C(=O)c3ccccc3C2=O)[C@H](c2ccccc2)C1 | inactive: > 100 µM
45 | OC(c1cc2ccccc2[nH]1)C(O)(c1cc2ccccc2[nH]1)c1cc2ccccc2[nH]1 (centres undefined) | inactive: 13.7 µM
46 | Cc1c(C)c(C)c(-n2c(=O)n(C)c(=O)n2-c2cc(C(C)(C)C)cc(C(C)(C)C)c2O)c(C)c1C | inactive: 13.4 µM
47 | CCCCCCCCOC(=O)c1cc([N+](=O)[O-])c(Sc2[nH]cnc3ncnc2-3)c([N+](=O)[O-])c1 | inactive: 4.93 µM
48 | CC(=O)OC(C)(C)[C@@H]1CC[C@]2(C)/C=C/[C@H](C)C[C@@H](O)C3=C(C)C[C@@H](O3)C12 (some centres undefined) | inactive: > 100 µM
49 | Cn1c(-c2ccccc2)cc2c3ccsc3c3ccsc3c21 | inactive: > 100 µM
50 | COc1cc2c(cc1-c1coc3cc(OCC=C(C)C)ccc3c1=O)OCO2 | inactive: 31.4 µM
51 | COc1ccc(/C=C2\SC(c3ccc(OC)cc3)N(NC(=O)Cc3ccccc3)C2=O)cc1 (centres undefined) | inactive: > 100 µM
52 | CCOC(=O)c1c(N2CCCC2)ncn(Cc2ccccc2)c1=S | inactive: > 100 µM
53 | FC(F)(F)c1ccc2c(c1)N(CCCNCCN1CCOCC1)c1ccccc1S2 | inactive: 11.1 µM
54 | [N-]=[N+]=Nc1c(-c2ccccc2)c(Cl)nc2ccccc12 | inactive: 29.3 µM
55 | CNC(C)Cc1ccccc1OC (centres undefined) [METHOXYPHENAMINE HYDROCHLORIDE] | inactive: > 100 µM
56 | COc1ccc2c(c1)c1c(n2CCN(C)C)-c2cccc(OC)c2CC1 | inactive: 13.6 µM
57 | COc1cc(S(=O)(=O)Nc2ccc(-c3csc(/N=C\c4ccccc4)n3)cc2)ccc1Cl | inactive: 65 µM
58 | Oc1ccc(Oc2cc3c(cc2Oc2ccc(O)cc2)-c2nc-3nc3[nH]c(nc4nc(nc5[nH]c(n2)c2cc(Oc6ccc(O)cc6)c(Oc6ccc(O)cc6)cc52)-c2cc(Oc5ccc(O)cc5)c(Oc5ccc(O)cc5)cc2-4)c2cc(Oc4ccc(O)cc4)c(Oc4ccc(O)cc4)cc32)cc1 | inactive: 80.7 µM
59 | O=C(O)c1ccc(S(=O)(=O)c2ccccc2[N+](=O)[O-])cc1 | inactive: > 10 µM
60 | COC(=O)[C@]12CC=C3O[C@@H]4OC5(CCCCC5)O[C@@H]4C3[C@@H]1C(=O)CCC2=O (some centres undefined) | inactive: > 100 µM
61 | CCOC(=O)C1(C#N)C(c2ccccc2)CC(O)(c2ccc(Cl)cc2)C(C(=O)c2ccc(Cl)cc2)C1c1ccccc1 (centres undefined) | inactive: > 100 µM
62 | CN1[C@@H]2CC[C@H]1C[C@@H](OC(c1ccccc1)c1ccccc1)C2 [BENZTROPINE MESYLATE] | inactive: 24 µM
63 | COc1ccc2c3c1OC1C(OC)(OC)CC4(C=C2)CN(C)CCC314 (centres undefined) | inactive: > 100 µM

Row | Compound | GI50
64 | CCOC(=O)c1csc(NC(=O)CCCC#N)n1 | inactive: > 100 µM
65 | COC(C[C@H]1CCCC[C@]1(O)/C(=C\CO[Si](C(C)C)(C(C)C)C(C)C)Sc1ccccc1)OC | inactive: 47.8 µM
66 | CC(C(=O)N1c2ccccc2Sc2ccccc21)N1c2ccccc2Sc2ccccc21 (centres undefined) | inactive: > 100 µM
67 | CC(C)(Oc1ccc(Cl)cc1)C(=O)N(C(=O)N1CCC(c2ccccc2)CC1)c1ccccc1 | inactive: > 100 µM
68 | C[C@]12CCC3[C@@H](CC[C@@H]4c5nonc5CC[C@]34C)C1CCC2=O (some centres undefined) | inactive: 32.1 µM
69 | NCCN1C(=O)c2cc(Cl)c(Cl)cc2C1(O)c1ccc(Cl)cc1 (centres undefined) | inactive: 2.61 µM
70 | COc1ccc(/C=C2\CSC/C(=C\c3ccc(OC)c(OC)c3OC)C2=O)c(OC)c1OC | inactive: > 100 µM
71 | CC(C)(Oc1ccc(C(=O)c2ccc(Cl)cc2)cc1Cl)C(=O)N1CCN(CCO)CC1 | inactive: > 10 µM
72 | CC[C@H](C)[C@H]1NC(=O)[C@@H](NC(=O)[C@@H](CC(C)C)N(C)CC2CCCN2C(=O)C(C)=O)[C@@H](C)OC(=O)[C@H](Cc2ccc(OC)cc2)N(C)C(=O)C2CCCN2C(=O)[C@H](CC(C)C)NC(=O)[C@@H](C)C(=O)[C@H](C(C)C)OC(=O)C[C@@H]1O (some centres undefined) | active: 0.00405 µM
73 | CCCOC(=O)CNC(=O)OC(C)(C)C | inactive: > 100 µM
74 | N/N=C1/CCCc2nonc21 | inactive: > 100 µM
75 | COc1ccc(/C=C/C(=O)c2ccccc2)cc1OC | inactive: 13.2 µM
76 | CCOC(=O)c1c(N2CCCC2)ncn(C)c1=S | inactive: > 100 µM
77 | NC(N)=NN/C(=C1/N=c2ccc([N+](=O)[O-])cc2=NC1=O)C(O)c1ccco1 (centres undefined) | inactive: > 100 µM
78 | CCOC(=O)Nc1cc2c(c(N)n1)N=C(c1ccccc1)[C@H](C)N2 [MIVOBULIN ISETHIONATE] | active: < 0.0001 µM
79 | Cc1cc(Cl)ccc1NC(=O)CCCC(=O)C1C/C(=N/O)CC/C1=N\O (centres undefined) | inactive: > 100 µM
80 | COc1cccc([C@@H]2C/C(=N\NC(=O)C(=O)N[C@@H](C)c3ccccc3)c3ccccc3N2)c1 | inactive: > 100 µM
81 | C1=N\c2ccc(cc2)-c2ccc(cc2)/N=C\c2ccccc2OCc2cccc(n2)COc2ccccc2/1 | inactive: > 100 µM
82 | c1ccc([P+](CCN2Cc3ccccc3C2)(c2ccccc2)c2ccccc2)cc1 | inactive: 18.3 µM
83 | CCOC(=O)Nc1cc(NC(/C=N/NC(C)=O)C(=O)OCC)c(OC)cc1NC(C)=O (centres undefined) | inactive: > 100 µM
84 | c1coc(CNc2[nH]cnc3nncc2-3)c1 | inactive: > 100 µM

Structures can show the parent of a compound that is named as a salt.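 Following 48 hours of exposure in 96-well plates, responses at five concentrations were used to interpolate endpoints linearly. Here, GI50 denotes the concentration required for 50% inhibition of growth.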 Activity calls are given as the source filed them. No stated cut-off is given here; in the data, active = GI50 up to about 1.1 µM and inactive = higher.
